Test results taken from US20160159928A1.

molecular target: CXCR1 (UniProt P25024); test: flow cytometry; secreted IgG, CXCR1-U2OS over parental U2OS cells
Chain of UniProt P25024 (P25024 whole entry): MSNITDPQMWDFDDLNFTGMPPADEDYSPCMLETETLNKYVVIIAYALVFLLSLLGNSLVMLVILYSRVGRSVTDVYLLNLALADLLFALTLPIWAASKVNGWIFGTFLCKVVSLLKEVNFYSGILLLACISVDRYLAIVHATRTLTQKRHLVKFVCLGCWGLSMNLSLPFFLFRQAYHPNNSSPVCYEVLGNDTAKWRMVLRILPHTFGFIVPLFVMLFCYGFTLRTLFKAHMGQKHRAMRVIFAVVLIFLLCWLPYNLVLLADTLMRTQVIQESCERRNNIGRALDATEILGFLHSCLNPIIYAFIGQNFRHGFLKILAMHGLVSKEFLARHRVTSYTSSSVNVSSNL

Row | Binder | FACS CXCR1/Parental Ratio
1 | BLV1H12+CDR3-IL8 heavy chain with human germline light chain V1-2J7 (antibody, human IgG1, lambda) heavy: QVQLRESGPSLVKPSQTLSLTCTASGFSLSDKAVGWVRQAPGKALEWLGSIDTGGNTGYNPGLKSRLSITKDNSKSQVSLSVSSVTTEDSATYYCTSVHQETKKYQSPRSAKELRCQCIKTYSKPFHPKFIKELRVIESGPHCANTEIIVKLSDGRELCLDPKENWVQRVVEKFLKRAENSGSGSYTYNYEWHVDVWGQGLLVTVSS[omitted - human IgG1 constant region] light: QSALTQPPSASGSPGQSVTISCTGTSSDVGGYNYVSWYQQHPGKAPKLMIYEVSKRPSGVPDRFSGSKSGNTASLTVSGLQAEDEADYYCSSYAGSNNFAVFGGGTQLTVLGQPKAAPSVTLFPPSSEELQANKATLVCLISDFYPGAVTVAWKADSSPVKAGVETTTPSKQSNNKYAASSYLSLTPEQWKSHRSYSCQVTHEGSTVEKTVAPTECS | 0.8
2 | BLV1H12+CDR3-IL8 heavy chain with human germline light chain V1-7J1 (antibody, human IgG1, lambda) heavy: QVQLRESGPSLVKPSQTLSLTCTASGFSLSDKAVGWVRQAPGKALEWLGSIDTGGNTGYNPGLKSRLSITKDNSKSQVSLSVSSVTTEDSATYYCTSVHQETKKYQSPRSAKELRCQCIKTYSKPFHPKFIKELRVIESGPHCANTEIIVKLSDGRELCLDPKENWVQRVVEKFLKRAENSGSGSYTYNYEWHVDVWGQGLLVTVSS[omitted - human IgG1 constant region] light: QSALTQPASVSGSPGQSITISCTGTSSDVGSYNLVSWYQQHPGKAPKLMIYEGSKRPSGVSNRFSGSKSGNTASLTISGLQAEDEADYYCCSYAGSSTFYVFGTGTKVTVLGQPKAAPSVTLFPPSSEELQANKATLVCLISDFYPGAVTVAWKADSSPVKAGVETTTPSKQSNNKYAASSYLSLTPEQWKSHRSYSCQVTHEGSTVEKTVAPTECS | 0.6
3 | BLV1H12+CDR3-IL8 heavy chain with human germline light chain V2-17J2 (antibody, human IgG1, lambda) heavy: QVQLRESGPSLVKPSQTLSLTCTASGFSLSDKAVGWVRQAPGKALEWLGSIDTGGNTGYNPGLKSRLSITKDNSKSQVSLSVSSVTTEDSATYYCTSVHQETKKYQSPRSAKELRCQCIKTYSKPFHPKFIKELRVIESGPHCANTEIIVKLSDGRELCLDPKENWVQRVVEKFLKRAENSGSGSYTYNYEWHVDVWGQGLLVTVSS[omitted - human IgG1 constant region] light: SYELTQPPSVSVSPGQTARITCSGDALPKQYAYWYQQKPGQAPVLVIYKDSERPSGIPERFSGSSSGTTVTLTISGVQAEDEADYYCQSADSSGTYPVVFGGGTKLTVLGQPKAAPSVTLFPPSSEELQANKATLVCLISDFYPGAVTVAWKADSSPVKAGVETTTPSKQSNNKYAASSYLSLTPEQWKSHRSYSCQVTHEGSTVEKTVAPTECS | 2
4 | BLV1H12+CDR3-IL8 heavy chain with human germline light chain V3-4J1 (antibody, human IgG1, lambda) heavy: QVQLRESGPSLVKPSQTLSLTCTASGFSLSDKAVGWVRQAPGKALEWLGSIDTGGNTGYNPGLKSRLSITKDNSKSQVSLSVSSVTTEDSATYYCTSVHQETKKYQSPRSAKELRCQCIKTYSKPFHPKFIKELRVIESGPHCANTEIIVKLSDGRELCLDPKENWVQRVVEKFLKRAENSGSGSYTYNYEWHVDVWGQGLLVTVSS[omitted - human IgG1 constant region] light: QTVVTQEPSFSVSPGGTVTLTCGLSSGSVSTSYYPSWYQQTPGQAPRTLIYSTNTRSSGVPDRFSGSILGNKAALTITGAQADDESDYYCVLYMGSGISYVFGTGTKVTVLGQPKAAPSVTLFPPSSEELQANKATLVCLISDFYPGAVTVAWKADSSPVKAGVETTTPSKQSNNKYAASSYLSLTPEQWKSHRSYSCQVTHEGSTVEKTVAPTECS | 1.2

molecular target: CXCR1 (UniProt P25024); test: flow cytometry; CXCR1-U2OS over parental U2OS cells

Row | Binder | CXCR1/Parental Ratio
5 | VH4-34+CDR3-IL8_CDR1 G31D, Y32K with light chain V1-51 (antibody, human IgG1, lambda) heavy: QVQLQQWGAGLLKPSETLSLTCAVYGGSFSDKYWSWIRQPPGKGLEWIGEINHSGSTNYNPSLKSRVTISVDTSKNQFSLKLSSVTAADTAVYYCTSVHQETKKYQSPRSAKELRCQCIKTYSKPFHPKFIKELRVIESGPHCANTEIIVKLSDGRELCLDPKENWVQRVVEKFLKRAENSGSGSYTYNYEWHVDVWGQGLLVTVSS[omitted - human IgG1 constant region] light: QSVLTQPPSVSAAPGQKVTISCSGSSSNIGNNYVSWYQQLPGTAPKLLIYDNNKRPSGIPDRFSGSKSGTSATLGITGLQTGDEADYYCASAEDSSSNAVFGSGTTLTVLGQPKAAPSVTLFPPSSEELQANKATLVCLISDFYPGAVTVAWKADSSPVKAGVETTTPSKQSNNKYAASSYLSLTPEQWKSHRSYSCQVTHEGSTVEKTVAPTECS | 3
6 | VH4-34+CDR3-IL8 with light chain V1-51 (antibody, human IgG1, lambda) heavy: QVQLQQWGAGLLKPSETLSLTCAVYGGSFSGYYWSWIRQPPGKGLEWIGEINHSGSTNYNPSLKSRVTISVDTSKNQFSLKLSSVTAADTAVYYCTSVHQETKKYQSPRSAKELRCQCIKTYSKPFHPKFIKELRVIESGPHCANTEIIVKLSDGRELCLDPKENWVQRVVEKFLKRAENSGSGSYTYNYEWHVDVWGQGLLVTVSS[omitted - human IgG1 constant region] light: QSVLTQPPSVSAAPGQKVTISCSGSSSNIGNNYVSWYQQLPGTAPKLLIYDNNKRPSGIPDRFSGSKSGTSATLGITGLQTGDEADYYCASAEDSSSNAVFGSGTTLTVLGQPKAAPSVTLFPPSSEELQANKATLVCLISDFYPGAVTVAWKADSSPVKAGVETTTPSKQSNNKYAASSYLSLTPEQWKSHRSYSCQVTHEGSTVEKTVAPTECS | 2.9
7 | VH4-34+CDR3-IL8_CDR1 G31D, Y32K_CDR2 E50S with light chain V1-51 (antibody, human IgG1, lambda) heavy: QVQLQQWGAGLLKPSETLSLTCAVYGGSFSDKYWSWIRQPPGKGLEWIGSINHSGSTNYNPSLKSRVTISVDTSKNQFSLKLSSVTAADTAVYYCTSVHQETKKYQSPRSAKELRCQCIKTYSKPFHPKFIKELRVIESGPHCANTEIIVKLSDGRELCLDPKENWVQRVVEKFLKRAENSGSGSYTYNYEWHVDVWGQGLLVTVSS[omitted - human IgG1 constant region] light: QSVLTQPPSVSAAPGQKVTISCSGSSSNIGNNYVSWYQQLPGTAPKLLIYDNNKRPSGIPDRFSGSKSGTSATLGITGLQTGDEADYYCASAEDSSSNAVFGSGTTLTVLGQPKAAPSVTLFPPSSEELQANKATLVCLISDFYPGAVTVAWKADSSPVKAGVETTTPSKQSNNKYAASSYLSLTPEQWKSHRSYSCQVTHEGSTVEKTVAPTECS | 3
8 | VH4-34+CDR3-IL8_CDR1 Cow_CDR2 E50S with light chain V1-51 (antibody, human IgG1, lambda) heavy: QVQLQQWGAGLLKPSETLSLTCTASGFSLSDKAVGWIRQPPGKGLEWIGSINHSGSTNYNPSLKSRVTISVDTSKNQFSLKLSSVTAADTAVYYCTSVHQETKKYQSPRSAKELRCQCIKTYSKPFHPKFIKELRVIESGPHCANTEIIVKLSDGRELCLDPKENWVQRVVEKFLKRAENSGSGSYTYNYEWHVDVWGQGLLVTVSS[omitted - human IgG1 constant region] light: QSVLTQPPSVSAAPGQKVTISCSGSSSNIGNNYVSWYQQLPGTAPKLLIYDNNKRPSGIPDRFSGSKSGTSATLGITGLQTGDEADYYCASAEDSSSNAVFGSGTTLTVLGQPKAAPSVTLFPPSSEELQANKATLVCLISDFYPGAVTVAWKADSSPVKAGVETTTPSKQSNNKYAASSYLSLTPEQWKSHRSYSCQVTHEGSTVEKTVAPTECS | 3.1
9 | VH4-34+CDR3-IL8_CDR2 E50S with light chain V1-51 (antibody, human IgG1, lambda) heavy: QVQLQQWGAGLLKPSETLSLTCAVYGGSFSGYYWSWIRQPPGKGLEWIGSINHSGSTNYNPSLKSRVTISVDTSKNQFSLKLSSVTAADTAVYYCTSVHQETKKYQSPRSAKELRCQCIKTYSKPFHPKFIKELRVIESGPHCANTEIIVKLSDGRELCLDPKENWVQRVVEKFLKRAENSGSGSYTYNYEWHVDVWGQGLLVTVSS[omitted - human IgG1 constant region] light: QSVLTQPPSVSAAPGQKVTISCSGSSSNIGNNYVSWYQQLPGTAPKLLIYDNNKRPSGIPDRFSGSKSGTSATLGITGLQTGDEADYYCASAEDSSSNAVFGSGTTLTVLGQPKAAPSVTLFPPSSEELQANKATLVCLISDFYPGAVTVAWKADSSPVKAGVETTTPSKQSNNKYAASSYLSLTPEQWKSHRSYSCQVTHEGSTVEKTVAPTECS | 1.8
10 | VH4-34+CDR3-IL8_CDR1 G31D, Y32K_CDR2 Cow with light chain V1-51 (antibody, human IgG1, lambda) heavy: QVQLQQWGAGLLKPSETLSLTCAVYGGSFSDKYWSWIRQPPGKGLEWLGSIDTGGNTGYNPSLKSRVTISVDTSKNQFSLKLSSVTAADTAVYYCTSVHQETKKYQSPRSAKELRCQCIKTYSKPFHPKFIKELRVIESGPHCANTEIIVKLSDGRELCLDPKENWVQRVVEKFLKRAENSGSGSYTYNYEWHVDVWGQGLLVTVSS[omitted - human IgG1 constant region] light: QSVLTQPPSVSAAPGQKVTISCSGSSSNIGNNYVSWYQQLPGTAPKLLIYDNNKRPSGIPDRFSGSKSGTSATLGITGLQTGDEADYYCASAEDSSSNAVFGSGTTLTVLGQPKAAPSVTLFPPSSEELQANKATLVCLISDFYPGAVTVAWKADSSPVKAGVETTTPSKQSNNKYAASSYLSLTPEQWKSHRSYSCQVTHEGSTVEKTVAPTECS | 2.6
11 | VH4-34+CDR3-IL8_CDR2 Cow with light chain V1-51 (antibody, human IgG1, lambda) heavy: QVQLQQWGAGLLKPSETLSLTCAVYGGSFSGYYWSWIRQPPGKGLEWLGSIDTGGNTGYNPSLKSRVTISVDTSKNQFSLKLSSVTAADTAVYYCTSVHQETKKYQSPRSAKELRCQCIKTYSKPFHPKFIKELRVIESGPHCANTEIIVKLSDGRELCLDPKENWVQRVVEKFLKRAENSGSGSYTYNYEWHVDVWGQGLLVTVSS[omitted - human IgG1 constant region] light: QSVLTQPPSVSAAPGQKVTISCSGSSSNIGNNYVSWYQQLPGTAPKLLIYDNNKRPSGIPDRFSGSKSGTSATLGITGLQTGDEADYYCASAEDSSSNAVFGSGTTLTVLGQPKAAPSVTLFPPSSEELQANKATLVCLISDFYPGAVTVAWKADSSPVKAGVETTTPSKQSNNKYAASSYLSLTPEQWKSHRSYSCQVTHEGSTVEKTVAPTECS | 3.9
